Data reported in paper PMC9911399, “Two distinct binding modes provide the RNA-binding protein RbFox with extraordinary sequence specificity”.
Positions count from the first letter of the chain named. Some of the results follow.

T1: RBFOX1 RRM RbFoxmut (Fox-RRM*) (Homo sapiens, UniProt Q9NWB1 109-208, R118D;E147R;N151S;E152T)
T1 sequence: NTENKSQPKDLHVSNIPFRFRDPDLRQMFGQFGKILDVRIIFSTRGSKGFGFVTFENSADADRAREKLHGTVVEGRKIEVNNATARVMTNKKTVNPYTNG

B1: CCGCCUG (DNA:RNA)
RNA: GGGAGACCGGAAUUCAGAUUGUCCCCGCCUGUUAAAUCCCGUCGUAGCCACCA
DNA 1: CAATCTGAATTCCGGTCTCCC
DNA 2: TGGTGGCTACGACGGGATT
B2: CCAUAUA (DNA:RNA)
RNA: B1 RNA with G27A, C28U, C29A, G31A
DNA 1: CAATCTGAATTCCGGTCTCCC
DNA 2: TGGTGGCTACGACGGGATT
B3: GACACUC (DNA:RNA)
RNA: B1 RNA with C25G, C26A, G27C, C28A, G31C
DNA 1: CAATCTGAATTCCGGTCTCCC
DNA 2: TGGTGGCTACGACGGGATT
B4: AAAUACC (DNA:RNA)
RNA: GGGAGACCGGAAUUCAGAUUGUCCAAAUACCUUAAAUCCCGUCGUAGCCACCA
DNA 1: CAATCTGAATTCCGGTCTCCC
DNA 2: TGGTGGCTACGACGGGATT
B5: AAGAAAU (DNA:RNA)
RNA: B4 RNA with A27G, U28A, C30A, C31U
DNA 1: CAATCTGAATTCCGGTCTCCC
DNA 2: TGGTGGCTACGACGGGATT
B6: AGAAGUU (DNA:RNA)
RNA: B4 RNA with A26G, U28A, A29G, C30U, C31U
DNA 1: CAATCTGAATTCCGGTCTCCC
DNA 2: TGGTGGCTACGACGGGATT
B7: CGGCAGU (DNA:RNA)
RNA: B1 RNA with C26G, C29A, U30G, G31U
DNA 1: CAATCTGAATTCCGGTCTCCC
DNA 2: TGGTGGCTACGACGGGATT
B8: GUUCCAG (DNA:RNA)
RNA: B1 RNA with C25G, C26U, G27U, U30A
DNA 1: CAATCTGAATTCCGGTCTCCC
DNA 2: TGGTGGCTACGACGGGATT
B9: AAUUGAC (DNA:RNA)
RNA: B4 RNA with A27U, A29G, C30A
DNA 1: CAATCTGAATTCCGGTCTCCC
DNA 2: TGGTGGCTACGACGGGATT
B10: UCGGAAC (DNA:RNA)
RNA: B4 RNA with A25U, A26C, A27G, U28G, C30A
DNA 1: CAATCTGAATTCCGGTCTCCC
DNA 2: TGGTGGCTACGACGGGATT
B11: CCGCAUG (DNA:RNA)
RNA: B1 RNA with C29A
DNA 1: CAATCTGAATTCCGGTCTCCC
DNA 2: TGGTGGCTACGACGGGATT
B12: AAUAUGU (DNA:RNA)
RNA: B4 RNA with A27U, U28A, A29U, C30G, C31U
DNA 1: CAATCTGAATTCCGGTCTCCC
DNA 2: TGGTGGCTACGACGGGATT
B13: CCGCUGA (DNA:RNA)
RNA: B1 RNA with C29U, U30G, G31A
DNA 1: CAATCTGAATTCCGGTCTCCC
DNA 2: TGGTGGCTACGACGGGATT
B14: AGGGCCG (DNA:RNA)
RNA: B1 RNA with C25A, C26G, C28G, U30C
DNA 1: CAATCTGAATTCCGGTCTCCC
DNA 2: TGGTGGCTACGACGGGATT
B15: ACUAGGA (DNA:RNA)
RNA: B4 RNA with A26C, A27U, U28A, A29G, C30G, C31A
DNA 1: CAATCTGAATTCCGGTCTCCC
DNA 2: TGGTGGCTACGACGGGATT
B16: AAAACCA (DNA:RNA)
RNA: B4 RNA with U28A, A29C, C31A
DNA 1: CAATCTGAATTCCGGTCTCCC
DNA 2: TGGTGGCTACGACGGGATT
B17: GAUCGCU (DNA:RNA)
RNA: B4 RNA with A25G, A27U, U28C, A29G, C31U
DNA 1: CAATCTGAATTCCGGTCTCCC
DNA 2: TGGTGGCTACGACGGGATT
B18: GUCUAUG (DNA:RNA)
RNA: B4 RNA with A25G, A26U, A27C, C30U, C31G
DNA 1: CAATCTGAATTCCGGTCTCCC
DNA 2: TGGTGGCTACGACGGGATT
B19: AAAUAGG (DNA:RNA)
RNA: B4 RNA with C30G, C31G
DNA 1: CAATCTGAATTCCGGTCTCCC
DNA 2: TGGTGGCTACGACGGGATT
B20: CUUUAAC (DNA:RNA)
RNA: B4 RNA with A25C, A26U, A27U, C30A
DNA 1: CAATCTGAATTCCGGTCTCCC
DNA 2: TGGTGGCTACGACGGGATT
B21: AACAUCC (DNA:RNA)
RNA: B4 RNA with A27C, U28A, A29U
DNA 1: CAATCTGAATTCCGGTCTCCC
DNA 2: TGGTGGCTACGACGGGATT
B22: ACACGGG (DNA:RNA)
RNA: B1 RNA with C25A, G27A, C29G, U30G
DNA 1: CAATCTGAATTCCGGTCTCCC
DNA 2: TGGTGGCTACGACGGGATT
B23: UGAGAAC (DNA:RNA)
RNA: B4 RNA with A25U, A26G, U28G, C30A
DNA 1: CAATCTGAATTCCGGTCTCCC
DNA 2: TGGTGGCTACGACGGGATT
B24: AUAGGGG (DNA:RNA)
RNA: B4 RNA with A26U, U28G, A29G, C30G, C31G
DNA 1: CAATCTGAATTCCGGTCTCCC
DNA 2: TGGTGGCTACGACGGGATT
B25: ACUUGUU (DNA:RNA)
RNA: B4 RNA with A26C, A27U, A29G, C30U, C31U
DNA 1: CAATCTGAATTCCGGTCTCCC
DNA 2: TGGTGGCTACGACGGGATT
B26: AUGUGCU (DNA:RNA)
RNA: B4 RNA with A26U, A27G, A29G, C31U
DNA 1: CAATCTGAATTCCGGTCTCCC
DNA 2: TGGTGGCTACGACGGGATT
B27: UCCAUGC (DNA:RNA)
RNA: B4 RNA with A25U, A26C, A27C, U28A, A29U, C30G
DNA 1: CAATCTGAATTCCGGTCTCCC
DNA 2: TGGTGGCTACGACGGGATT
B28: UGGAGCC (DNA:RNA)
RNA: B4 RNA with A25U, A26G, A27G, U28A, A29G
DNA 1: CAATCTGAATTCCGGTCTCCC
DNA 2: TGGTGGCTACGACGGGATT
B29: CCUCUAA (DNA:RNA)
RNA: B1 RNA with G27U, C29U, U30A, G31A
DNA 1: CAATCTGAATTCCGGTCTCCC
DNA 2: TGGTGGCTACGACGGGATT
B30: AAAGACC (DNA:RNA)
RNA: B4 RNA with U28G
DNA 1: CAATCTGAATTCCGGTCTCCC
DNA 2: TGGTGGCTACGACGGGATT
B31: CCCCUAA (DNA:RNA)
RNA: B1 RNA with G27C, C29U, U30A, G31A
DNA 1: CAATCTGAATTCCGGTCTCCC
DNA 2: TGGTGGCTACGACGGGATT

The binders below were run against T1, RBFOX1 RRM RbFoxmut (Fox-RRM*) (assay: EMSA; HiTS-Eq, 1 nM pool, 10 min; buffer printed only for the single-RNA assays: 10 mM Tris pH 7.5, 150 mM NaCl, 3.4 mM EDTA, 0.001% NP-40, 30 C). Details: tags: His6 N-terminal (pET28a); label: 5' 32P.
In short: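 These values rest on relative association constants, computed from read-count changes of each RNA species versus the control reaction and normalised to the cognate motif. Reads came from free RNA recovered by 8% native PAGE after purified RbFox RRM (wild type or mutant) at increasing concentrations was equilibrated for 10 min in 50 µL with 1 nM of a 5′-radiolabelled pool with 7 randomized nucleotides and DNA-annealed flanks.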

Binder | binding signal
B1 | 0.151 KA relative to UGCAUGU
B2 | 0.11 KA relative to UGCAUGU
B3 | 0.0417 KA relative to UGCAUGU
B4 | 0.105 KA relative to UGCAUGU
B5 | 0.0785 KA relative to UGCAUGU
B6 | 0.103 KA relative to UGCAUGU
B7 | 0.0773 KA relative to UGCAUGU
B8 | 0.107 KA relative to UGCAUGU
B9 | 0.0885 KA relative to UGCAUGU
B10 | 0.0772 KA relative to UGCAUGU
B11 | 1.13 KA relative to UGCAUGU
B12 | 0.101 KA relative to UGCAUGU
B13 | 0.116 KA relative to UGCAUGU
B14 | 0.141 KA relative to UGCAUGU
B15 | 0.0756 KA relative to UGCAUGU
B16 | 0.0991 KA relative to UGCAUGU

Binder | binding signal
B17 | 0.0689 KA relative to UGCAUGU
B18 | 0.161 KA relative to UGCAUGU
B19 | 0.0847 KA relative to UGCAUGU
B20 | 0.124 KA relative to UGCAUGU
B21 | 0.0502 KA relative to UGCAUGU
B22 | 0.0642 KA relative to UGCAUGU
B23 | 0.0827 KA relative to UGCAUGU
B24 | 0.0891 KA relative to UGCAUGU
B25 | 0.156 KA relative to UGCAUGU
B26 | 0.132 KA relative to UGCAUGU
B27 | 0.13 KA relative to UGCAUGU
B28 | 0.148 KA relative to UGCAUGU
B29 | 0.129 KA relative to UGCAUGU
B30 | 0.079 KA relative to UGCAUGU
B31 | 0.133 KA relative to UGCAUGU
